Earlier results in PMC7892437 (Frontiers in Pharmacology, 2021).

Test system: COVID-19
Settings: patients critically ill with COVID-19; ref Horby and Landrain, 2020; cited from earlier work

C[C@@H]1C[C@H]2[C@@H]3CCC4=CC(=O)C=C[C@]4(C)[C@@]3(F)[C@@H](O)C[C@]2(C)[C@@]1(O)C(=O)CO [Dexamethasone]
cut in deaths: one-third
